Test results: PubChem BioAssay AID485367 (National Center for Advancing Translational Sciences (NCATS), 2010)
Among all 330,000 compounds or so, about 560 (0.17%) were called active. The shares of active, inactive and inconclusive entries below differ from those in the screen. Calls follow the shape of the dose curve; as a rule, active = well fitted inhibition curve with a large enough effect; inconclusive = small, poorly fitted or top-dose-only effect, or effect the other way; inactive = flat fitted curve, though single readings scatter. No potency is given beside an inconclusive call; the fits are too rough.

biological target: ATP-dependent 6-phosphofructokinase (Trypanosoma brucei brucei) (UniProt O15648); assay: qHTS Assay to Find Inhibitors of T. brucei phosphofructokinase; also: nearly all actives have a fitted effect of over 60% in size; conditions: T. brucei PFK, ADP-Glo luminescence; series mostly up to 57.5 µM
In short: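 Luminescent ADP detection (ADP-Glo, two-step: ATP depletion then ADP-to-ATP conversion for luciferase) reported PFK activity after 45 min room-temperature reaction of 1.25 nM enzyme with 0.5 mM F6P and 0.1 mM ATP at pH 8.0.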
Potency is read from the fitted curve at half-maximal effect; tags tell the direction and shape of the fitted curve.

Chain of UniProt O15648 (O15648 whole entry, looked up): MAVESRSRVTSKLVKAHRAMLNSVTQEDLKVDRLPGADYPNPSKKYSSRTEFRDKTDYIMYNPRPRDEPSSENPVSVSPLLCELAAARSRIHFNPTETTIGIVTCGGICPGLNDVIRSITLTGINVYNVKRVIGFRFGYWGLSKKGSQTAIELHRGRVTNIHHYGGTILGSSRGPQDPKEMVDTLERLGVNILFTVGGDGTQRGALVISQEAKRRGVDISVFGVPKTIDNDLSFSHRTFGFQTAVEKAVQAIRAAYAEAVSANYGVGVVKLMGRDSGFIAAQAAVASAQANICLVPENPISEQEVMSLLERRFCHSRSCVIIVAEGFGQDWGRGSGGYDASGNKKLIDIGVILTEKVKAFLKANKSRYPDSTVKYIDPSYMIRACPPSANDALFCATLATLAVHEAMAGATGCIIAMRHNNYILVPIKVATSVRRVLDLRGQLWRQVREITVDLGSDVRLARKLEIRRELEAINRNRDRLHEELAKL

| Compound | Potency |
| --- | --- |
| O=C(CSCc1ccccc1)Nc1ccc2c(c1)C(=O)NC2=O | inconclusive [falling, single point] |
| C[C@H](NC(=O)C1CCN(C(=O)[C@H](Cc2ccccc2)NC(=O)OC(C)(C)C)CC1)C(=O)O | inconclusive [activator, single point] |
| Cc1cc(Cl)ccc1NC(=O)COC(=O)c1nc2nccc(C)n2n1 | inconclusive [falling, single point] |
| Cc1c(C(C)C[C@H](C)O)oc(=O)c2c1Oc1c(C)c(C(C)C[C@H](C)O)oc(=O)c1C2 (stereo not given in full) | inconclusive [falling, single point] |
| S=c1[nH]nc(COc2ccccc2)n1/N=C/c1cccc(Cl)c1Cl | inconclusive [falling, single point] |
| Cc1ccc(CNC(=O)CCS(=O)(=O)c2cc(Br)cc3c2N(C(=O)C2CC2)CC3)o1 | inactive |
| O=[N+]([O-])c1cccc(Cl)c1NCCNS(=O)(=O)c1ccccc1 | inactive |
| CCc1ccc(-c2csc3[n+]2CCN3C(C)=O)cc1 | inconclusive [falling, single point] |
| O=C(O)CCNc1ccc(Cl)cc1 | inconclusive [falling, single point] |
| CCC(CO)Oc1cc(NC(=O)c2ccccc2F)c2ncn(C(C)C)c2c1 (stereo not given) | inconclusive [falling, single point] |
| COc1ccc(C(=O)NCC(=O)N2CCN(c3ccc(Cl)cc3)CC2)cc1 | inactive |
| COc1cccc(-n2c(=O)c3ccccc3n3c(=S)[nH]nc23)c1 | inconclusive [falling, full curve] |
| O=C(COc1cccc(Cl)c1Cl)NC1CC1 | inconclusive [falling, single point] |
| c1ccc(CNc2ncnc3c2oc2ccccc23)nc1 | inactive |
| C=C(C)C(=O)Nc1cccc(C2=NOC3(C2)C[C@@H](C(N)=O)N(C(=O)CCCCC)C3)c1 (stereo not given in full) | active: 2.69 µM |
| O=C(CSc1nncs1)Nc1ccc2[nH]c(=O)[nH]c2c1 | inconclusive [falling, single point] |
| COc1ccc(NC(=O)CSc2nc(NS(=O)(=O)c3ccccc3)cc(=O)[nH]2)cc1 | inconclusive [falling, single point] |
| Cc1onc(-c2ccc(Cl)cc2)c1-c1ccnc(SCC(=O)Nc2cc(Cl)cc(Cl)c2)n1 | inconclusive [falling, single point] |
| COc1ccc(C2N(C(C)=O)CCN2S(=O)(=O)c2ccc(C)cc2)cc1 (stereo not given) | inconclusive [falling, full curve, poor fit] |
| O=C(Nc1nc2ccc(Cl)cc2s1)c1cccc(N2C(=O)CCC2=O)c1 | inconclusive [activator, single point] |
| Cc1ccc2nc(-c3ccccc3)cn2c1 | inconclusive [falling, partial curve] |
| COc1cc(OC)c(S(=O)(=O)Nc2ccccc2N2CCOCC2)cc1NC(C)=O | inconclusive [activator, single point] |

| Compound | Potency |
| --- | --- |
| Cc1ccc(C(=O)O)cc1N1C(=O)c2cccc3c([N+](=O)[O-])ccc(c23)C1=O | inactive |
| COc1ccc(C(=O)/C=C/c2ccc(OC)c(O)c2)c(F)c1 | inconclusive [falling, partial curve, poor fit] |
| CC(=O)n1cc(/C=N/NC(=O)c2ccccc2O)c2ccccc21 | inconclusive [falling, single point] |
| O=C(CCS(=O)(=O)c1ccc(Br)cc1)N1CCCCCC1 | inconclusive [falling, single point] |
| NS(=O)(=O)c1ccc(NC(=O)c2c(Cl)cccc2Cl)cc1 | inactive |
| CC1CCN(c2ccc(/C=N\Nc3nncn3N)cc2[N+](=O)[O-])CC1 | inconclusive [falling, single point] |
| Cc1ccc2c(c1)sc(C)[n+]2CCCS(=O)(=O)[O-] | inconclusive [activator, partial curve] |
| O=C(CCl)N1N=C(c2ccco2)CC1c1ccco1 (stereo not given) | inconclusive [falling, single point] |
| COc1ccc(/C=C/C(=O)Nc2ccccc2C(=O)O)cc1 | inconclusive [activator, partial curve] |
| O=C(Nc1cc(C(F)(F)F)ccc1N1CCOCC1)c1ccccc1 | inactive |
| S=C(NCc1ccc(Cl)c(Cl)c1)NCc1ccco1 | active: 26.9 µM |
| COc1cc(C)c(NC(=O)C(=S)NCCc2ccccc2)cc1C | inconclusive [falling, partial curve] |
| CN(C)C(=O)CSc1nnc(Cc2ccc([N+](=O)[O-])cc2)o1 | inconclusive [falling, single point] |
| O=C(NCCc1c[nH]c2ccccc12)c1ccc(Cl)cc1 | inactive |
| O=C(CCCC1=NS(=O)(=O)c2ccccc2N1)N1CCN(c2ccccc2)CC1 | inactive |
| Cc1snc(SCC(=O)c2ccc([N+](=O)[O-])cc2)c1C#N | inconclusive [falling, single point] |
| CCOc1ccc(C(=O)NC(=S)Nc2ccccc2OC)cc1[N+](=O)[O-] | inconclusive [falling, single point] |
| Cc1cccn2cc(-c3cccc(S(=O)(=O)N4CCCCC4)c3)nc12 | inconclusive [falling, single point] |
| Cc1ccc(NC2c3ncccc3C(=O)N2Cc2cccs2)cc1 (stereo not given) | inconclusive [falling, single point] |
| CC1(C)C(=O)Nc2ccccc2N1C(=O)CSc1nc(-c2ccccc2)cs1 | inconclusive [falling, single point] |
| Cc1ccc([N+](=O)[O-])cc1-c1ccc(/C=C(\C#N)c2[nH]nc(N)c2C#N)o1 | inconclusive [falling, partial curve] |
| COCCCNc1ncnc2c1sc1nc(-c3ccco3)c3c(c12)CC(C)(C)OC3 | inactive |

| Compound | Potency |
| --- | --- |
| Cc1ccc(C)c(N2CCN(CCCNC(=O)CCC(=O)N3CCOc4ccc(Cl)cc43)CC2)c1 | inactive |
| CC1(CCc2ccccc2)NC(=S)N(c2ccc(Cl)cc2)N1 (stereo not given) | inconclusive [falling, single point] |
| CCOC(=O)N/N=C/c1cn(Cc2ccc(F)cc2)c2ccccc12 | inconclusive [falling, single point] |
| COc1cccc2c1C(=O)c1c(O)c3c(c(O)c1C2=O)C[C@@](O)(C(=O)CO)C[C@@H]3O[C@H]1C[C@H](N)[C@H](O)[C@H](C)O1 | inconclusive [activator, single point] |
| COC(=O)\C(C(C)=O)=C(/C=C/C=C/N(C)C)N(C)C | inconclusive [falling, single point] |
| CCC1=NN(C(=O)Cc2ccc([N+](=O)[O-])cc2)C(O)(C(C)(C)C)C1 (stereo not given) | inconclusive [falling, single point] |
| Cc1ccc(SCC(=O)Nc2ccc(S(=O)(=O)Nc3nccs3)cc2)cc1 | inconclusive [falling, single point] |
| CC1CCCC(C)N1C(=O)COC(=O)CN1C(=O)c2ccccc2C1=O (stereo not given) | inactive |
| CC(=O)N1CCC(N(CCN2CCOCC2)C(=S)Nc2c(C)cccc2C)CC1 | inactive |
| COc1cc(/C=C/C(=O)c2ccc(C)c([N+](=O)[O-])c2)cc(OC)c1O | inactive |
| O=C(O)c1cccc(-n2cccc2/C=C2\NC(=O)N(Cc3ccc(F)cc3)C2=O)c1 | inactive |
| Cc1nn(-c2nc3ccccc3[nH]2)c(=O)c2ccccc12 | inconclusive [falling, partial curve] |
| Nc1nn(-c2ccccc2)c(N)c1N=Nc1ccccc1 | inconclusive [activator, single point] |
| O=C(CCc1ccc(O)cc1)N/N=C/c1coc2ccccc2c1=O | inconclusive [falling, single point] |
| COc1ccc(NC(=O)c2nnn(Cc3ccc(SC)cc3)c2N)c(OC)c1 | inconclusive [falling, single point] |
| O=C(OC[C@H]1O[C@@H](OC(=O)c2cc(O)c(O)c(OC(=O)c3cc(O)c(O)c(O)c3)c2)[C@H](OC(=O)c2cc(O)c(O)c(OC(=O)c3cc(O)c(O)c(O)c3)c2)[C@@H](OC(=O)c2cc(O)c(O)c(OC(=O)c3cc(O)c(O)c(O)c3)c2)[C@@H]1OC(=O)c1cc(O)c(O)c(OC(=O)c2cc(O)c(O)c(O)c2)c1)c1cc(O)c(O)c(OC(=O)c2cc(O)c(O)c(O)c2)c1 | active: 0.0953 µM |
| CCS(=O)(=O)C1=NN2C(=N)/C(=C\c3ccc(SCc4ccco4)o3)C(=O)N=C2S1 | inconclusive [activator, single point] |
| CC(C)NC(=O)c1cc(-c2ccco2)nn1-c1ccc(Cl)cc1 | inconclusive [falling, partial curve] |
| C[n+]1c2n(c3ccccc31)N=C(c1ccc(Br)cc1)CS2 | inconclusive [falling, single point] |
| CC(=O)C1=C(O)C(=O)N(CC(=O)O)C1c1ccccc1Cl (stereo not given) | inconclusive [activator, partial curve] |
| CN(C)/C=C(/C(=O)c1ccc(Cl)c(Cl)c1)c1nnnn1-c1ccccc1 | inconclusive [falling, single point] |
